Test results reported in PubChem BioAssay AID686978 (National Center for Advancing Translational Sciences (NCATS), 2013).
The campaign covered roughly 420,000 compounds. About 64,000 (15%) were called active. The shares of active, inactive and inconclusive entries below differ from those in the screen. Calls come from the whole dose curve; as a rule, active = well fitted inhibition curve with a large enough effect; inconclusive = small, poorly fitted or top-dose-only effect; inactive = flat fitted curve, though single readings scatter. No potency is given beside an inconclusive call; the fits are too rough.

Assay: qHTS for Inhibitors of human tyrosyl-DNA phosphodiesterase 1 (TDP1): qHTS in cells in absence of CPT; note: nearly all actives have a fitted effect of over 55% in size
Details: DT40 Tdp1-/- hTDP1 cells, no CPT, ATP luminescence, 48 h; activity change, negative = growth inhibition: at 46.2 µM (top of the series) unless noted
Method in brief: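 No-CPT arm: Tdp1-/-;hTDP1 DT40 cells (400/well) plus compounds, incubated ≥48 hr at 37 °C. Readout CellTiter-Glo luminescence.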
% is set by controls: 0 for no effect and ±100 for the full control effect; potency is the fitted concentration of half-maximal effect; tags give direction and shape of the fitted curve.

For `CN1C(=O)/C(=C/c2cc(C(C)(C)C)c(O)c(C(C)(C)C)c2)NC1=S`, which Potency is on record?
Its Potency is “inactive”.

With `CCc1nc2sc3c(c2c(=S)[nH]1)CC(C)(C)OC3` as the molecule, how does the Potency read?
The Potency was inconclusive [inhibitor, single point].

For `COc1cc(/C=N/NC(=O)CN(CCc2ccccc2)S(=O)(=O)c2ccc(NC(C)=O)cc2)cc(OC)c1OC`, which activity change, negative = growth inhibition is on record?
Its activity change, negative = growth inhibition is inconclusive: -36% [inhibitor].

With `CC(C)NC(=O)C1(C)CN(S(C)(=O)=O)CC(=O)N1Cc1cccs1` (stereo unspecified) as the molecule, how does the Potency read?
The Potency was inconclusive [inhibitor, full curve, poor fit].

Which Potency does the source give for `O=C(Cn1cnc2c(OCc3ccccc3)ncnc21)NCc1ccc2[nH]ccc2c1` here?
The Potency was active: 16.4 µM.

Which Potency does the source give for `CC(C)N(CCNC(=O)C1CCC(=O)N1Cc1ccc(F)cc1)Cc1ccccc1` (stereo unspecified) here?
Its Potency is inconclusive [inhibitor, single point].

With `COc1ccc(OC2(C)CCN(Cc3ccc(-c4ccccc4)o3)C2)cc1` (stereo unspecified) as the molecule, how does the Potency read?
The Potency was inconclusive [inhibitor, single point].

Which Potency does the source give for `CCCn1c(=O)n(-c2ccccc2Cl)c(=O)c2sc3ccccc3c21` here?
The Potency was inconclusive [inhibitor, single point].

Which Potency does the source give for `Cc1cc(C)c(NC(=O)Cn2nc(-c3ccncc3)ccc2=O)c(C)c1` here?
Its Potency is inconclusive [inhibitor, full curve, poor fit].

With `COCCN(Cc1nc(C(c2ccccc2)c2ccccc2)no1)C(C)C` as the molecule, how does the Potency read?
The Potency was inconclusive [inhibitor, single point].

With `Cc1ccccc1-n1c(C)cc(/C=N/NC(=O)c2ccc(CN3CCOCC3)cc2)c1C` as the molecule, how does the Potency read?
The Potency was inconclusive [inhibitor, single point].

Which Potency does the source give for `CN(c1ccc(C(=O)N2CCN(c3ccc(F)cc3)CC2)cc1)S(C)(=O)=O` here?
Its Potency is inconclusive [inhibitor, single point].

For `O=C(NCc1ccc2c(c1)OCO2)c1ccc(CSCc2cccc(Cl)c2)o1`, which Potency is on record?
Its Potency is inconclusive [inhibitor, single point].

Which Potency does the source give for `Cc1ccccc1-c1cc2c(nn1)-c1ccccc1C2=O` here?
The Potency was inconclusive [inhibitor, single point].

Which Potency does the source give for `O=C(Nc1ccn(Cc2c(F)c(F)cc(F)c2F)n1)c1ccc(COc2ccc(Cl)cc2Cl)o1` here?
Its Potency is inconclusive [inhibitor, single point].

Which Potency does the source give for `COC(=O)c1[nH]nc2c1C(=O)N(C1CCCCC1)C2=O` here?
The Potency was inconclusive [inhibitor, single point].

With `O=C(NC(=S)Nc1ccccn1)c1ccco1` as the molecule, how does the Potency read?
The Potency was inconclusive [inhibitor, single point].

Which Potency does the source give for `COc1cccc(OCCNS(=O)(=O)c2ccccc2[N+](=O)[O-])c1` here?
Its Potency is “inactive”.

With `O=C(O)CCCC(=O)Nc1ccc(OCc2nc3ccccc3s2)cc1` as the molecule, how does the Potency read?
The Potency was inconclusive [inhibitor, single point].

Which Potency does the source give for `COc1cc(C(C(=O)NC2CCCC2)N(Cc2ccco2)C(=O)c2snc(C(N)=O)c2N)cc(OC)c1OC` (stereo unspecified) here?
The Potency was inconclusive [inhibitor, single point].

For `COc1ccc(-c2ccc3c(N)c(C(=O)Nc4ccc(C(F)(F)F)cc4)sc3n2)cc1OC`, which Potency is on record?
Its Potency is inconclusive [inhibitor, single point].

For `CCc1c(C)nc2ncnn2c1N1CCCC(C(=O)NCCc2ccc(OC)cc2)C1` (stereo unspecified), which Potency is on record?
The Potency was inconclusive [inhibitor, single point].

For `C/C(=N/NC(=O)c1ccco1)c1ccc(NC(=O)c2ccc(F)cc2)cc1`, which Potency is on record?
The Potency was inconclusive [inhibitor, partial curve].

For `CC(C)(C)OC(=O)N(CCc1ccccc1)Cc1cccc(OCc2cccc(NC(=O)c3ccccc3)c2)c1`, which Potency is on record?
The Potency was active: 18.4 µM.

For `COc1ccc(C(=O)Nc2ccccc2Cc2ccccc2)c(OC)c1`, which Potency is on record?
The Potency was inconclusive [inhibitor, single point].

For `COc1cc(/C=N/NC(=O)CC#N)cc(Br)c1O`, which activity change, negative = growth inhibition is on record?
The activity change, negative = growth inhibition was inconclusive: -32.6% [inhibitor].

For `O=C(c1cc(F)c(F)cc1Cl)N1CCN(S(=O)(=O)c2cccs2)CC1`, which Potency is on record?
Its Potency is “inactive”.

Which activity change, negative = growth inhibition does the source give for `CCC(=O)N1CCC1(C)C(=O)Nc1ccc(Cl)c(Cl)c1` (stereo unspecified) here?
Its activity change, negative = growth inhibition is inconclusive: -30.3% [inhibitor].

With `COc1cc(OC)cc(-c2c(-c3cccs3)c3cc(-c4ccc(OC)cc4F)ccc3n2C)c1` as the molecule, how does the Potency read?
The Potency was active: 14.6 µM.

For `Nc1nnc(SCCCC(=O)c2ccc(Br)cc2)s1`, which Potency is on record?
Its Potency is inconclusive [inhibitor, single point].

Which activity change, negative = growth inhibition does the source give for `Cc1cc2oc(=O)cc(CN3CCC(C)CC3)c2cc1Cl` here?
Its activity change, negative = growth inhibition is inconclusive: -33.8% [inhibitor].

With `CN(Cc1nc2ccccc2c(=O)[nH]1)C(=O)c1ccccc1OCc1ccc(Cl)cc1` as the molecule, how does the Potency read?
Its Potency is inconclusive [inhibitor, single point].

For `CCCCN(CC)C(=O)CSc1nc2n[nH]c(C)c2c(=N)n1-c1cccc(Cl)c1`, which Potency is on record?
Its Potency is active: 10.3 µM.

For `CCOC(=O)c1[nH]c(C)c(CCC(=O)N2CCN(c3cccc(OC)c3)CC2)c1C`, which Potency is on record?
Its Potency is inconclusive [inhibitor, single point].

For `CC(C)CCNC(=O)C1CCC(CNc2c(N3CCCC3)c(=O)c2=O)CC1` (stereo unspecified), which Potency is on record?
The Potency was “inactive”.

With `Cc1ccc(NC(=O)Cc2ccc(-n3c(C)nc4cccnc43)cc2)c(Cl)c1` as the molecule, how does the Potency read?
Its Potency is active: 4.11 µM.

With `CN(CC(=O)Nc1ccc(F)cc1)C(=O)COC(=O)CCN1C(=O)C2CC=CCC2C1=O` (stereo unspecified) as the molecule, how does the Potency read?
The Potency was “inactive”.

With `CCN(CC(=O)NCc1ccc(F)cc1)Cc1nc2ccccc2c(=O)[nH]1` as the molecule, how does the Potency read?
Its Potency is “inactive”.

Which Potency does the source give for `CCCCN(CCCC)C(=O)/C=C/c1cccc([N+](=O)[O-])c1` here?
Its Potency is active: 16.4 µM.

With `CC(C)(C)c1ccc(/C=C/C(=O)c2ccc(NC3=NCCCS3)cc2)cc1` as the molecule, how does the Potency read?
Its Potency is inconclusive [inhibitor, single point].

With `COc1ccc(S(=O)(=O)N2CCC(C(=O)Nc3cccc(Cl)c3)CC2)cc1OC` as the molecule, how does the Potency read?
Its Potency is inconclusive [inhibitor, single point].

Which Potency does the source give for `CC1CCN(C(=O)c2ncn3c2c(=O)[nH]c2cccnc23)CC1` here?
The Potency was “inactive”.

Which Potency does the source give for `CCOC(=O)C1=CCN(S(=O)(=O)c2ccccc2Br)C1c1ccc(F)cc1` (stereo unspecified) here?
Its Potency is inconclusive [inhibitor, single point].

With `CC(C)CCNC(=O)c1ccccc1SCC(=O)NC1CCCCCCC1` as the molecule, how does the Potency read?
The Potency was inconclusive [inhibitor, single point].

Which Potency does the source give for `CC(=O)c1ccc(-c2cnc3c(NC=O)cc(-c4ccccc4Oc4ccccc4)cn23)cc1` here?
The Potency was active: 20.6 µM.

With `Cc1ccc(NCSc2ccc(Cl)cc2)cc1` as the molecule, how does the Potency read?
The Potency was inconclusive [inhibitor, partial curve].

Which Potency does the source give for `Cc1ccc(Cl)c(OCC(=O)Nc2ccccc2N2CCCCC2)c1` here?
Its Potency is inconclusive [inhibitor, single point].

For `CN(C(=O)c1coc(=O)c2ccccc12)c1ccccc1Cl`, which Potency is on record?
The Potency was inconclusive [inhibitor, partial curve, poor fit].

Which Potency does the source give for `COc1ccc2oc(-c3ccccc3)c(OC)c(=O)c2c1` here?
The Potency was inconclusive [inhibitor, partial curve, poor fit].

With `CC(C)(C)n1ncc2c(=O)n(CC(=O)c3ccccc3)cnc21` as the molecule, how does the Potency read?
Its Potency is inconclusive [inhibitor, partial curve].

For `COc1ccc(Cl)cc1NC(=O)C1CC(=O)N(c2ccc(F)cc2)C1` (stereo unspecified), which Potency is on record?
Its Potency is inconclusive [inhibitor, partial curve, poor fit].

Which Potency does the source give for `CC(=O)c1ccc(NS(=O)(=O)c2ccc3c(c2)N(C)CCO3)cc1` here?
The Potency was inconclusive [inhibitor, partial curve].

For `CCN1CCc2c(sc(NC(=O)c3ccc(S(=O)(=O)N(C)c4ccccc4)cc3)c2C(=O)NC)C1`, which Potency is on record?
Its Potency is active: 20.6 µM.

With `CC1CCCN(S(=O)(=O)c2ccc3c(c2)OCCO3)C1` (stereo unspecified) as the molecule, how does the Potency read?
Its Potency is inconclusive [inhibitor, single point].

Which Potency does the source give for `CCOc1ccccc1N/C(=C(/C(Cl)=C(Cl)Cl)[N+](=O)[O-])n1cncn1` here?
Its Potency is inconclusive [inhibitor, partial curve].

For `COc1ccc(CC(=O)N/N=C/c2cccn2-c2ccc([N+](=O)[O-])cc2)cc1OC`, which Potency is on record?
The Potency was active: 14.6 µM.

For `O=C(O)CNC(=O)c1ccc(Sc2ccccc2)c([N+](=O)[O-])c1`, which Potency is on record?
The Potency was “inactive”.

For `Cc1ccc(Cl)cc1N1CCN(S(=O)(=O)c2ccc3c(c2)oc(=O)n3C)CC1`, which Potency is on record?
The Potency was inconclusive [inhibitor, partial curve].

With `CCN(CC)S(=O)(=O)c1ccc(NC=C(C#N)C#N)cc1` as the molecule, how does the Potency read?
Its Potency is inconclusive [inhibitor, single point].

For `CCCCn1nc(C(=O)Nc2cc(C(F)(F)F)ccc2N2CCOCC2)ccc1=O`, which Potency is on record?
The Potency was active: 3.66 µM.

For `COc1ccc(Br)c(C=O)c1OS(=O)(=O)c1ccc(C)cc1`, which Potency is on record?
Its Potency is inconclusive [inhibitor, single point].

For `COc1ccc(NC(=O)COc2coc(CN3CCc4ccccc4C3)cc2=O)cc1`, which Potency is on record?
Its Potency is inconclusive [inhibitor, single point].

Which Potency does the source give for `COc1ccc(OC)c(NC(=O)C2(C)CCN2C(=O)C(C)(C)c2ccccc2)c1` (stereo unspecified) here?
Its Potency is inconclusive [inhibitor, single point].

Which Potency does the source give for `CC(C)CN(C(=O)CSc1nnc2ccccn12)C1CCS(=O)(=O)C1` (stereo unspecified) here?
Its Potency is “inactive”.

Which Potency does the source give for `COc1ccc(CNc2ncc(-c3ccccc3)n2C)c2ccccc12` here?
Its Potency is inconclusive [inhibitor, single point].

With `COc1ccccc1C(=O)NCCn1cc(SCC(=O)Nc2ccccc2F)c2ccccc21` as the molecule, how does the Potency read?
The Potency was inconclusive [inhibitor, single point].
